# Data taken from PMC4336329 (PLoS ONE, 2015).
# Hit rate of the full screen: of about 310,000 compounds, about 14,000 (4.5%) showed an effect of 50% or more. Effects have a minus sign here. Some of the results follow.
# Target: human ether-à-go-go-related gene (hERG) potassium channel (human, UniProt Q12809)
# Assay: primary screen, population patch clamp on CHO cells stably expressing hERG
# 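Also: peak tail current of the secondary pulse compared with the same well before compound.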
# Chain of human ether-à-go-go-related gene (hERG) potassium channel (Q12809 whole entry, looked up): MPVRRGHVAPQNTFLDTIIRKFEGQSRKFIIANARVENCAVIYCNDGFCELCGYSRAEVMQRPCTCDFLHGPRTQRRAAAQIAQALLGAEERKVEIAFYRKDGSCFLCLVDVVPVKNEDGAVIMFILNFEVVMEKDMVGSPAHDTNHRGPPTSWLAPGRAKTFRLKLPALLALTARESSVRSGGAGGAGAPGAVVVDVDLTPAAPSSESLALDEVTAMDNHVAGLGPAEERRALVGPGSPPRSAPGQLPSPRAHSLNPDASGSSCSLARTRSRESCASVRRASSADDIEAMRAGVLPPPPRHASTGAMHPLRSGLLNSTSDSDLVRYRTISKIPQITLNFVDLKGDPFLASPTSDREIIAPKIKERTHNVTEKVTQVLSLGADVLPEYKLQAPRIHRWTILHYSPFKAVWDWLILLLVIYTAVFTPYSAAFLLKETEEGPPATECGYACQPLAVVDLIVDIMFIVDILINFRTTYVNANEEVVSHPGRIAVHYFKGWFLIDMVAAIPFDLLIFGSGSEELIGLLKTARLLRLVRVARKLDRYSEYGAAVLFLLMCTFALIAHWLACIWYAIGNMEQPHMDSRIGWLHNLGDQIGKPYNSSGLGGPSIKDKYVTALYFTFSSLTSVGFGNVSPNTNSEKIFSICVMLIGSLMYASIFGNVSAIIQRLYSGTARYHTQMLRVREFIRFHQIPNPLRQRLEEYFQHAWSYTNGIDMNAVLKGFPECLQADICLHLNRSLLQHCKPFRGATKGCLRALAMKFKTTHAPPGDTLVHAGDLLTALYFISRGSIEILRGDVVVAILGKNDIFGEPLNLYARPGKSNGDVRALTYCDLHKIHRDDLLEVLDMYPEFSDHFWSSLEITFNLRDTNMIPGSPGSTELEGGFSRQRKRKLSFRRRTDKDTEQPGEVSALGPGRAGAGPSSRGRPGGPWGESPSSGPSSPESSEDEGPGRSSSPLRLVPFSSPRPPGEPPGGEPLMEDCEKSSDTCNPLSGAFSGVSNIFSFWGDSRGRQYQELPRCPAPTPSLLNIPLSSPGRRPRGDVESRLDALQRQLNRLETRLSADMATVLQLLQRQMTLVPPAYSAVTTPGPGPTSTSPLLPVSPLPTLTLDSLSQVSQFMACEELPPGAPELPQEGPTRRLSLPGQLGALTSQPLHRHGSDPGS
row,SMILES,"hERG current change (%, negative = inhibition) at 10uM [%]"
1,COCCn1c(SCC(=O)NCc2ccco2)nnc1-c1c[nH]c2ccccc12,4.06
2,CCOc1ccc(OCC)c(N=c2oc3c(C)ncc(CO)c3cc2C(N)=O)c1,3.76
3,CN1CCc2nc3sc(C(=O)NC(C)(C)C)c(N)c3cc2C1,0.483
4,Cc1c(C(=O)N2CCC(n3nccc3NC(=O)C3CC3)CC2)[nH]c2ccc(Cl)cc12,-59.4
5,CC1(C)CN=C(Nc2ccccc2C(F)(F)F)S1,15.1
6,CC(C)n1cc(/C(N)=N/O)c(=O)n(Cc2ccccc2)c1=O,-5.33
7,Cc1cc(C(=O)N2CCCc3ccccc32)ccc1[N+](=O)[O-],-13.9
8,CC1CCOC2(O1)C(=O)N(CN1CCN(c3cccc(Cl)c3)CC1)c1ccccc12 (centres unmarked),9.18
9,Cc1ccc(N(CCC(=O)NC(C)(C)C)S(=O)(=O)c2ccc(C)cc2)cc1,-7.84
10,CN(C)c1ccc(/C=N/NC(=O)c2ccccc2)cc1,10.9
11,CC1=NN(c2ccc(C)c(C)c2)C(=O)/C1=C\C=C\c1ccc([N+](=O)[O-])o1,12.7
12,COCCCNC(=S)N/N=C/c1ccc(N(C)C)cc1Cl,9.74
13,Cc1ccc(NC(=O)CSc2nncs2)cc1Cl,5.51
14,N#Cc1ccc(CSc2nnc(NC(=O)c3ccc4ncsc4c3)s2)cc1,10.3
15,O=[N+]([O-])c1cnccc1Nc1ccccc1,-6.35
16,CCC(=NCCO)c1c(O)n(-c2ccc(Cl)cc2)c(=O)[nH]c1=O,15.5
17,N#Cc1cc2cc3c(cc2nc1N1CCOCC1)OCO3,6.87
18,CCOc1cc(OCC)cc(C(=O)NCCCN2CCOCC2)c1,-0.196
19,CSc1nc(-c2ccc(N(C)C)cc2)c(C#N)c(=O)n1C,-6.91
20,COc1ccccc1N1CCN(c2nc3ccccn3c(=O)c2C=O)CC1,2.35
21,O=C(NCCc1ccccc1)C1CCN(S(=O)(=O)N2CCCC2)CC1,17.2
22,CS(=O)(=O)c1ccc2c(c1)sc1nc(=O)c(/C=C3/C=CC(=O)C(O)=C3)c(N)n12,23.1
23,CCc1cc(CNC(=O)CCc2nnc(CCCc3ccccc3)o2)on1,-15.7

row,SMILES,"hERG current change (%, negative = inhibition) at 10uM [%]"
1,CC(C)c1ccc(-c2nn(-c3ccccc3)cc2C2C(C#N)=C(N)OC3=C2C(=O)CC(C)(C)C3)cc1 (centres unmarked),-11.2
2,O=C(CSc1nnc(-c2cccnc2)o1)Oc1ccccc1,1.89
3,COc1ccccc1CNC(=O)c1nccnc1CO,5.79
4,COCCC1CCCCN1Cc1cn(-c2ccccc2)nc1-c1ccc2c(c1)OCO2 (centres unmarked),-55.8
5,N#CC1=C2SCC(O)(c3ccccc3)N2C(=O)CC1c1ccccc1F (centres unmarked),-15.2
6,COc1ccccc1-c1nnc(NC(=O)c2ccc(S(=O)(=O)N(C)C)cc2)o1,-2.44
7,CC(=O)N1CCN(c2cc3c(cc2F)c(=O)c(C(=O)O)cn3C2CC2)CC1,8.31
8,COc1ccc(CNc2oc(Cc3cccc4ccccc34)nc2C#N)cc1,6.28
9,CCc1ccc(NC(=S)N(CCCN2CCOCC2)Cc2ccccn2)cc1,-56.3
10,CC(C)(C)C(=O)NC(=S)Nc1ccccc1F,3.29
11,O=C(c1cc(F)ccc1F)C1CCCN(Cc2cccc(Cl)c2)C1 (centres unmarked),4.01
12,Cc1nc(NC(=O)/C=C/c2ccccc2)sc1C(=O)Nc1ccccc1,17.2
13,COc1ccc2[nH]c(C)c(CCN3C(=O)C4C5C=CC(C5)C4C3=O)c2c1 (centres unmarked),6.01
14,COc1ccccc1N(CC(=O)NCC1CCCO1)C(=O)CNS(=O)(=O)c1ccc(Cl)cc1 (centres unmarked),3.24
15,CC(=O)N1CC[n+]2c(-c3ccc(Cl)cc3Cl)csc21.[Br-],-21.5
16,COc1cccc(-c2nc(N3CCN(c4ccccc4)CC3)c3ccccc3n2)c1O,0.912
17,CC(=O)Nc1ccc(SC[C@H](Cc2ccccc2)N2CCN(CC(C)C)CCC2=O)cc1,-44.2
18,C#CCOCCOCCOCCNc1nc(N2CCOCC2)nc(N2CCN(C(=O)[C@H](CCCCN)n3cc([C@@H](N)CC(C)C)nn3)CC2)n1.Cl,3.88
19,COc1ccc(CCNC(=O)Cc2cccc(C(F)(F)F)c2)cc1OC,5.75
20,O=C1CC(c2ccccc2)Cc2nc3ncnn3cc21 (centres unmarked),3.72
21,Cc1ccc(N2C(=O)CS(=O)(=O)CC2=O)cc1,22.9
22,O=S(=O)(Cc1nnnn1-c1ccc(Br)cc1)c1ccc(F)cc1,8.04
23,CSCCC(NC=C1C(=O)OC(C)(C)OC1=O)C(=O)O (centres unmarked),19.4

row,SMILES,"hERG current change (%, negative = inhibition) at 10uM [%]"
1,C=C1CCN(C(C(=O)OC)C(C)C)S(=O)(=O)c2ccccc21 (centres unmarked),4.06
2,FC(F)(F)c1nc2ncc(Cl)cc2[nH]1,-6.97
3,CC(=O)Oc1ccc(C(=O)c2ccccc2)c(OC(C)=O)c1,-11.9
4,Nc1ncnc(Nc2cc(C(F)(F)F)cc(C(F)(F)F)c2)n1,5.24
5,CC(=O)N(c1ccccc1)C1CC(C)N(C(=O)c2ccccc2)c2ccccc21 (centres unmarked),-5.97
6,Cc1cccc(NC(=S)N2CCC(NC(=O)C3CCCCC3)CC2)c1,20.4
7,COc1ccc(-c2nc(C3CCCCC3)c3cc(OC)ccc3n2)cc1,3.12
8,C/C(=N\NC(=O)C(O)c1ccccc1)c1ccc(C)s1 (centres unmarked),9.56
9,COc1ccc(OC)c(CNn2c(-c3cccc(C)c3)nc3ccccc3c2=O)c1,6.92
10,COc1ccc(CCNC(=O)c2cc3ccccn3n2)c(OC)c1OC,-3.41
11,CCn1ccnc1CN(C)Cc1nc(-c2ccc3c(c2)OCO3)no1,-2.93
12,Oc1ccccc1Cn1c(-c2ccccc2O)nc2ccccc21,6.27
13,Cc1cccc(C(C)C)c1NC(=O)COC(=O)c1cc2ccccc2oc1=O,-25.1
14,CC(C)n1c(=O)[nH]c2ccccc21,13
15,C=C1c2cc3c(cc2NC(=S)N1Cc1ccccc1)OCO3,-4.28
16,O=C(OC(C(=O)NC1CCCC1)c1ccccc1F)c1ccco1 (centres unmarked),5.25
17,O=C(NC12CC3CC(CC(C3)C1)C2)c1cccnc1Cl,18.1
18,C/C=C/c1ccc(OCCCCN2CCN(CC)CC2)c(OC)c1.O=C(O)C(=O)O,-29.5
19,Clc1ccc(/C=N/N2CCN(Cc3ccccc3)CC2)cc1,-5.2
20,CC(NC(=O)C1CCCCC1)C(c1cccs1)N1CCOCC1 (centres unmarked),2.17
21,Cc1cc(C)nc(N/N=C2/CCSc3ccc(F)cc32)n1,6.74
22,COc1cc(C(=O)n2cnc3ccccc32)c([N+](=O)[O-])cc1OC,4.75
23,Cc1ccc(S(=O)(=O)N2CCOCC2)cc1NC(=O)CSc1nccn1C,-0.154

row,SMILES,"hERG current change (%, negative = inhibition) at 10uM [%]"
1,CC(=O)Nc1cccc(/C(C)=N/NC(=O)c2ccc(NS(=O)(=O)c3cccs3)cc2)c1,0.419
2,c1ccc(-c2nc3cccnc3nc2-c2ccccc2)cc1,-6.36
3,Cc1ccc(CNC(=O)CCSCCC(=O)NCc2ccc(C)cc2)cc1,7.08
4,Cc1cccc(NC(=O)CCC(=O)c2cccs2)n1,12
5,Cc1ccccc1NC(=O)Cc1nc(COC(=O)/C=C/c2ccccc2)cs1,-15.3
6,O=C(c1cc2ncc(CCCl)cn2n1)N1CCCCCC1,8.53
7,CCOc1cc2[nH]c(=S)n(Cc3ccc(C(=O)NCCN(CC)CC)cc3)c(=O)c2cc1OCC,9.79
8,Cc1c(NC(=O)c2ccc(CC(C)C)o2)c(=O)n(-c2ccccc2)n1C,5.35
9,CN1Cc2cccc3c2C(Cc2ccccc2S3)C1.O=C(O)/C=C\C(=O)O (centres unmarked),-36.6
10,NC(=O)CC(NC(=O)Cc1ccc(Br)cc1)c1ccc(N2CCC(N3CCCC3)CC2)c([N+](=O)[O-])c1 (centres unmarked),15.8
11,Cn1cc(Br)c(-c2cccc(NC(=O)CCC(=O)O)c2)n1,3.43
12,CC(=O)Nc1ccc(NC(=O)C2CCC(N3C(=O)C4C5C=CC(C6CC56)C4C3=O)CC2)cc1 (centres unmarked),12.9
13,Cc1cccc(C)c1OCC(=O)N(Cc1ccco1)C1CCS(=O)(=O)C1 (centres unmarked),-23.3
14,O=C(Oc1ccccc1)c1ccc2nccnc2c1,-3.95
15,Cc1onc(-c2c(F)cccc2Cl)c1C(=O)Nc1nc2ccccc2[nH]1,-0.407
16,O=C(Nc1nnc(C2CCCCC2)s1)C1CC(=O)N(c2ccccc2)C1 (centres unmarked),9.68
17,COc1cc2c(c3oc(=O)cc(CC(=O)O)c13)CCC(C)(C)O2,-5.45
18,Nc1nonc1-n1nnc(C(=O)N/N=C/c2ccccc2)c1CN1CCc2ccccc21,12.2
19,Cc1nc2ncnn2c(C)c1CCC(=O)O,26
20,COc1cc(NC(=O)COc2cccc3c2OC(C)(C)C3)cc(OC)c1OC,-6.09
